Over roughly 5,400 compounds, “IFI” has its median near 2; the highest 2% begin near 22. The list shows a part of the results.

The experiment is described as follows: NOVARTIS: Inhibition Frequency Index (IFI) - the number of HTS assays where a compound showed > 50% inhibition/induction, expressed as a percentage of the number of assays in which the compound was tested. The format is functional.
The compound `Clc1ccc(-c2c[n+](Cc3ccccc3Cl)c3n2CCC3)cc1` registered an IFI of 2.38%.
As for `CCCCN1Cc2ccc(C(=O)NC(C)C)cc2N=C1c1ccc(F)cc1`, the figure is 1.22%; as for `COc1cc(NC(C)=C2C(=O)c3ccccc3C2=O)c(OC)cc1Cl`, 0%.
As for `Cc1ccc[n+](C(C)C(=O)c2ccc(-c3ccccc3)cc2)c1` (configuration not stated), the figure is 0%; as for `CN(CCCNc1ccnc2cc(Cl)ccc12)C(=O)CC(C)(C)C`, 7.48%.
As for `CCOC(=O)c1ccc(Nc2nc(N)c3cc(OC)c(OC)cc3n2)cc1`, the figure is 0%.
Compound `COc1cc(C(=O)N2CCN(Cc3cccc(Br)c3)CC2)cc(OC)c1OC` displayed an IFI of 1.12%.
In the case of `COc1cccc(C(=O)N(CCCC(C)Nc2cc(OC)cc3cccnc23)Cc2ccc(F)cc2)c1` (configuration not stated) it was 2.8%.
In turn, `Cc1ccc(-c2c3c(nc4sc(C(=O)Nc5ccc(F)cc5)c(N)c24)CCC3)cc1` showed an IFI of 7.14%.
In the case of `N#C/C(=C\c1cn(Cc2ccccc2Cl)c2ccccc12)c1nn(CCO)c(N)c1C#N` it was 0%; in that of `CC(C)(C)OC(=O)N1CCC(c2c(C(=O)Nc3cccc(C(F)(F)F)c3)cnn2-c2ccc(F)cc2F)CC1`, 0%; in that of `CCN(CC)CCCC(C)Nc1nc(/C=C/c2ccc(Br)cc2)nc2cc(Cl)ccc12` (configuration not stated), 3.97%.
`O=C(Nc1ccc(NC2=NCCN2)cc1)c1ccc(C(=O)Nc2ccc(NC3=NCCN3)cc2)cc1` registered an IFI of 2.61%.
As for `Oc1cccc2ccc(Nc3ccccn3)nc12`, the figure is 15.2%; as for `CC[n+]1c(/C=C2\C=Cc3cc(C)ccc3N2C)ccc2cc(C)ccc21`, 15.4%.
As for `COc1cccc(-c2ccc(O)c(CNCCc3cccc(F)c3)c2)n1`, the figure is 0.901%; as for `COc1ccc(C2C(C(=O)Nc3ccc(OC)c(OC)c3)CCC(=O)N2c2ccc(OC)cc2)cc1` (configuration not stated), 0%; as for `COc1ccc(OCC(=O)Nc2cccc(NC(=O)COc3ccc(OC)cc3)n2)cc1`, 0%.
In the case of `CCCOc1ncnc2c1sc1nc3c(cc12)COC(C)(C)C3` it was 1.8%.
On to `CCOc1ccc(-n2nc(C(=O)NCCCN(C)Cc3ccccc3)c3ccccc3c2=O)cc1`, for which the IFI is 2.63%.
As for `C=CCn1c(=O)c(C(=O)NCC[N+](CC)(CC)CC=C)c(O)c2ccccc21`, the figure is 0%.
In the case of `CO[C@H]1[C@@H](C)[C@@H]([C@H](C)C2O[C@@]3(CC[C@@](C)([C@H]4CC[C@@](C)([C@@H]5O[C@@H]([C@H]6O[C@](C)(O)[C@H](C)C[C@@H]6C)C[C@@H]5C)O4)O3)C[C@H](O)[C@@H]2C)O[C@@](O)([C@H](C)C(=O)O)[C@H]1C` (some centres not stated), the IFI was found to be 6.35%.
Take `COc1ccc(OC)c(-c2ccc(O)c(CNCCc3cccc(F)c3)c2)c1`: the IFI came to 1.92%.
In the case of `C[n+]1c2ccccc2nc2ccc(NCCc3cnc[nH]3)cc21` it was 15.4%; in that of `O=C(CS(=O)(=O)c1ccc(C(F)(F)F)cn1)NNS(=O)(=O)c1ccc(Cl)cc1`, 0.909%.
Consider `COc1ccc(C=NNc2nc3ccccc3[nH]2)cc1OC`, for which the IFI was determined as 7.69%.
On to `CC(C)(C)CC(C)(C)Nc1c(-c2ccccc2OC(=O)c2ccc(C(F)(F)F)cc2)nc2ccccn12`, for which the IFI stood at 3.81%.
In the case of `COC(=O)CNC(=O)c1sc2ncn(CC(=O)Nc3ccccc3OC)c(=O)c2c1C` it was 0%; in that of `CCc1cccc(NC(=O)CCCn2c(=O)c3cccn3c3ccccc32)c1`, 3.7%; in that of `CCCC(=O)O[C@]1(C(=O)CCl)[C@@H](C)C[C@H]2[C@@H]3CCC4=CC(=O)C=C[C@]4(C)[C@@]3(F)C(=O)C[C@@]21C`, 2.72%.
In the case of `COC(=O)c1c(NC(=O)c2c(-c3ccccc3)noc2C)sc2c1CCC2` it was 1.45%; in that of `Fc1ccccc1Nc1nc(NCC2CCCO2)c2ccccc2n1` (configuration not stated), 0%; in that of `CN(C)CCCNC(=O)c1ccc(-c2cncc(-c3cccc(O)c3)n2)cc1`, 4.17%.
Compound `CCc1c(C)nc(SCC(=O)NNC(C)=O)nc1O` displayed an IFI of 1.61%.
As for `CC(=O)Nc1cc(C(=O)Nc2ccc(C3=NCCN3)cc2)ccc1C(=O)Nc1ccc(C2=NCCN2)cc1`, the figure is 0%; as for `COc1ccc(-c2csc(Nc3ccc(O)cc3)n2)cc1OC`, 0%.
Regarding `CCOc1ccc(C(=O)CN2C(=O)c3ccccc3OC(C(C)C)C2=O)cc1[N+](=O)[O-]` (configuration not stated), the IFI is 0%.
In the case of `Cc1ccc(NC2=C(N3CCCCC3)C(=O)c3ccccc3C2=O)cc1` it was 3.91%; in that of `O[C@@H]1[C@H]2c3cc4c(cc3CN3CCC(=C[C@@H]1O)[C@H]23)OCO4`, 10.6%; in that of `BrC(Br)(Br)c1ncc(-c2ccccc2)cn1`, 7.14%.
In the case of `Cc1cc(C)n(N=Cc2cccc(Cl)c2)c(=O)c1C#N`, the IFI turned out to be 0%.
As for `C=CCN1CCN(C(c2ccccc2F)c2nnnn2Cc2ccco2)CC1` (configuration not stated), the figure is 0%.
Compound `O=C(OC(C(=O)NCc1ccco1)c1ccc(F)cc1)c1ccco1` (configuration not stated) gave an IFI of 5.56%.
`COc1ccc(Cl)cc1NC(=O)C1c2ccccc2C(=O)N(CC(C)C)C1c1cccs1` (configuration not stated) returned an IFI of 9.09%.
The compound `O=C(NCc1ccccc1)c1cnc(NCCCN2CCCC2)nc1NCCc1ccccc1` had an IFI of 1.91%.
In the case of `O=c1c2cnn(-c3ccccc3)c2nc(-c2ccccc2F)n1-c1ccc(Br)cc1` it was 2.25%; in that of `CC[n+]1c(/C=C2\Sc3ccc(OC)cc3N2C)ccc2cc(C)ccc21`, 14.3%; in that of `C[n+]1oc(/C=C/c2ccccc2)cc1/C=C/c1ccccc1`, 19.4%.
In the case of `O=C(c1cccs1)N(Cc1cccs1)c1ccc([N+](=O)[O-])cc1` it was 1.96%.
In the case of `CCN(CC)CCNc1ncnc2c1[nH]c1ccc(Br)cc12` it was 5.66%.
Regarding `Cc1cc(N2CCC(N(C)C3CCCC3)CC2)nc2cc(O)ccc12`, the IFI was determined as 4.54%.
In the case of `O=C(COc1ccc(Cl)cc1)N1CCCn2cccc2C1c1ccc(Cl)cc1` (configuration not stated) it was 0.971%.
In the case of `CC(=O)Nc1nc(C)c(-c2csc(Nc3ccc(Cl)cc3)n2)s1` it was 5.81%; in that of `COc1ccccc1-n1c(C(C)N2CCN(C(=O)c3cc([N+](=O)[O-])cc([N+](=O)[O-])c3)C(C)C2)nc2ccccc2c1=O` (configuration not stated), 1.87%.
In the case of `O=c1c2sccc2nc(SCc2cc(=O)n3ccccc3n2)n1Cc1ccccc1` it was 0%; in that of `CCCC(=O)NC(C(=O)N1CCN(C(c2ccccc2)c2ccccc2)CC1)C(C)C` (configuration not stated), 0.943%; in that of `CCOC(=O)c1cnc2c3c(ccc2c1O)CCCC3`, 2.22%.
Turning to `CCN1CCN(C(=O)CS(=O)(=O)Cc2nc(-c3cccc(OC)c3)oc2C)CC1`, the IFI came to 0%.
In the case of `COc1cc(C2C3=C(CC(C)(C)CC3=O)Nc3ccccc3N2C(=O)C(C)C)cc(OC)c1OC` (configuration not stated) it was 0%.
In the case of `O=C(NCc1ccco1)c1cccc(Cl)c1Cl` it was 0%; in that of `CC1CCCCN1CCCNc1ncc(C(=O)NCc2ccccc2)c(NCCc2ccccc2)n1` (configuration not stated), 3.92%.
As for `CN1C=CC=C/C1=C\C=C1\C=Nc2ccccc21`, the figure is 7.14%; as for `CC1=C(CC(=O)c2cccc([N+](=O)[O-])c2)C(=O)c2ccccc2C1=O`, 2.44%; as for `NC(=O)C(Cc1ccccc1)Nc1ccc([N+](=O)[O-])cc1[N+](=O)[O-]` (configuration not stated), 0%.
In turn, `OCCc1cn(-c2ccccc2)c2ccccc12` gave an IFI of 0%.
As for `Cc1ccccc1-c1cnnc(NCC2CCCCO2)n1` (configuration not stated), the figure is 0%; as for `COc1ccc(N2C(=O)[C@@H]3C[C@H]2CN3C(=O)c2cccc(Cn3nc(C)cc3C)c2)cc1Cl`, 1.87%.
Consider `FC(F)(F)c1ccccc1NC(=S)N1CCCN(c2nc3ccc(Cl)cc3s2)CC1`, for which the IFI came out at 6.2%.
In the case of `Cc1oc(-c2cccc(C(F)(F)F)c2)cc1C(=O)O` it was 0%; in that of `OC(CN1CCN(C/C=C/c2ccccc2)CC1)Cn1c2ccc(Br)cc2c2cc(Br)ccc21` (configuration not stated), 3.03%; in that of `COc1ccc(OCC(=O)Nc2cccc(-c3nc4ncccc4o3)c2)cc1`, 2.15%.
As for `CCC[n+]1ccc(/C=C/c2ccc(Br)cc2)cc1`, the figure is 0%; as for `O=C(NCc1nnc(SCC2CCCO2)n1Cc1ccccc1)c1cccc2ccccc12` (configuration not stated), 1.72%.
As for `C[n+]1ccn(-c2ccc(C(=O)c3ccc(-n4cc[n+](C)c4)cc3)cc2)c1`, the figure is 1.41%.
`CCOc1ccc2nc(C)cc(Nc3ccc(OCc4ccccc4Cl)cc3)c2c1` displayed an IFI of 2.38%.
Consider `COc1ccc(C(=O)C[n+]2ccc3c(c2)nc(-c2ccc(OC)cc2OC)n3C)cc1`, for which the IFI came out at 0%.
On to `CCCN1CCC(N2C[C@@H](NC3CCCCCCC3)C[C@H]2C(=O)NCCc2ccc3c(c2)OCO3)CC1`, for which the IFI is 0.99%.
In the case of `CCC1CCCCN1S(=O)(=O)c1cc(Br)cc2c1N(C(=O)C1CC1)CC2` (configuration not stated) it was 0%; in that of `CCc1ccc(Nc2cc(C)nc3nc(C)nn23)cc1`, 0%; in that of `COc1ccc(CC(=O)Nc2sc3c(c2C(=O)Nc2cccc4ccccc24)CCCC3)cc1`, 0%.
As for `O=c1c2c3c(sc2ncn1Cc1cccc(Cl)c1)CC(N1CCCCC1)CC3` (configuration not stated), the figure is 1.75%.
Take `Cc1oc2c(cc(NS(=O)(=O)c3ccc(F)cc3)c3ccccc32)c1C(=O)OCc1ccccc1`: the IFI stood at 0%.
Take `c1ccc([B-](c2ccccc2)(c2ccccc2)c2ccccc2)cc1`: the IFI stood at 1.27%.
Regarding `O=C(Cn1c(-c2ccccc2)c[n+]2ccsc12)c1ccccc1`, the IFI stood at 3.17%.
As for `CC(=O)N1CCc2cc(Br)cc(S(=O)(=O)N3CCCC(C)C3)c21` (configuration not stated), the figure is 0%; as for `O=C(Nc1ccccc1Cl)c1cc2ccccc2cc1O`, 12.3%.
In the case of `CCOC(=O)c1cccc(OC(=O)c2ccccc2)c1` it was 0%.
Compound `O=C(CN1CCN(C(=O)c2ccco2)CC1)Nc1ccccc1Br` gave an IFI of 1.67%.
In the case of `Nc1cc(C(=O)Nc2ccc(C3=NCCCN3)cc2)ccc1C(=O)Nc1ccc(C2=NCCCN2)cc1` it was 2.63%; in that of `O=C(Nc1ccc(-c2nc3ccc(-c4nc5ccc(NC(=O)c6ccccc6[N+](=O)[O-])cc5[nH]4)cc3[nH]2)cc1)c1ccccc1[N+](=O)[O-]`, 0%.
`O=C(NCCc1ccc(Cl)cc1)C1CCCN(c2nnc(N3CCCC3=O)s2)C1` (configuration not stated) returned an IFI of 2.04%.
As for `CCN(CC)c1cc(-c2ccccn2)nc(-c2ccccn2)n1`, the figure is 15.4%; as for `Cc1cccc(NC(=O)c2cc(Cl)nc3ccccc23)c1`, 2.08%.
As for `CCN1/C(=C/c2sc3ccc(-c4ccccc4)cc3[n+]2CCO)C=Cc2cc(OC)ccc21`, the figure is 7.14%; as for `O=[N+]([O-])c1ccc(S(=O)(=O)NCCCCNc2ccnc3cc(Cl)ccc23)cc1`, 3.74%; as for `CC(C)(C)CC(C)(C)Nc1c(-c2ccccc2OC(=O)C2CCCCC2)nc2ccccn12`, 2.83%.
For the compound `COc1ccc(C2c3cccn3-c3ccccc3N2C(=O)CN(C(=O)Nc2ccc(C(F)(F)F)cc2)C2CC2)cc1` (configuration not stated), the IFI is 4.2%.

For the origin of these results see ChEMBL document CHEMBL1156829.
